According to the supplement of paper PMC12217912:
The list shows a part of the results. Sequences were assembled here from the parent chain. Inactive controls read about 0.05.

B1: TEV protease; numbered along this chain (parent)
chain: MGESLFKGPRDYNPISSSICHLTNESDGHTTSLYGIGFGPFIITNKHLFRRNNGTLVVQSLHGVFKVKDTTTLQQHLVDGRDMIIIRMPKDFPPFPQKLKFREPQREERICLVTTNFQTKSMSSMVSDTSCTFPSGDGIFWKHWIQTKDGQCGSPLVSTRDGFIVGIHSASNFTNTNNYFTSVPKNFMELLTNQEAQQWVSGWRLNADSVLWGGHKVFMVKPEEPFQPVKEATQL

Variants of: B1
Experiment: raw area under fraction-flipped curve 0-4 h after induction (AUC4h, not background-subtracted), DNA-recorder readout of cleavage of the substrate (dimensionless); higher = more cleavage of the substrate by the protease variant
Conditions: temperature: 34 °C; time window: 0-4 h after rhamnose induction
Description: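 In vivo DNA recorder in E. coli TOP10(DE3) ΔrhaA at 34 °C. Each TEVp single-site mutant (parent TEVp 0) is paired with a single-site variant of the 7-mer TEVs (canonical ENLYFQ|S). The substrate sits between flexible linkers in a Bxb1-sfGFP-TEVs-SsrA fusion, so cleavage stabilises Bxb1 and speeds flipping of a recombination array, read by NGS. The value is the raw area under the fraction-flipped curve over 0-4 h after rhamnose induction (AUC4h), with ≥20 reads per time point. It is not background-subtracted; inactive controls average about 0.047.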
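Further: Bxb1 expression induced with 0.2% (w/v) L-rhamnose at OD600 near 0.5, cultures sampled hourly, flipped fraction per protease–substrate barcode pair counted by paired-end Illumina sequencing.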

A196Y
area with substrate DNLYFQS: 0.0612 | area with substrate KNLYFQS: 0.0659 | area with substrate MNLYFQS: 0.0829 | area with substrate PNLYFQS: 0.0877 | area with substrate QNLYFQS: 0.0658 | area with substrate RNLYFQS: 0.0977 | area with substrate TNLYFQS: 0.0632 | area with substrate YNLYFQS: 0.0549

V67Q
area with substrate DNLYFQS: 0.0635 | area with substrate FNLYFQS: 0.0627 | area with substrate HNLYFQS: 0.0504 | area with substrate INLYFQS: 0.0496 | area with substrate KNLYFQS: 0.065 | area with substrate LNLYFQS: 0.0505 | area with substrate PNLYFQS: 0.0544 | area with substrate TNLYFQS: 0.0597 | area with substrate WNLYFQS: 0.0663

I167H
area with substrate DNLYFQS: 0.0543 | area with substrate GNLYFQS: 0.0507 | area with substrate HNLYFQS: 0.0613 | area with substrate KNLYFQS: 0.0497 | area with substrate LNLYFQS: 0.0319 | area with substrate MNLYFQS: 0.0311 | area with substrate SNLYFQS: 0.0573 | area with substrate TNLYFQS: 0.0554 | area with substrate WNLYFQS: 0.05

R102K
area with substrate DNLYFQS: 0.0803 | area with substrate GNLYFQS: 0.0779 | area with substrate HNLYFQS: 0.0569 | area with substrate KNLYFQS: 0.0492 | area with substrate LNLYFQS: 0.0741 | area with substrate MNLYFQS: 0.0645 | area with substrate NNLYFQS: 0.0756 | area with substrate PNLYFQS: 0.0762 | area with substrate TNLYFQS: 0.0587 | area with substrate WNLYFQS: 0.0591

V57C
area with substrate DNLYFQS: 0.08 | area with substrate FNLYFQS: 0.0621 | area with substrate GNLYFQS: 0.0732 | area with substrate HNLYFQS: 0.0615 | area with substrate INLYFQS: 0.0631 | area with substrate KNLYFQS: 0.0748 | area with substrate LNLYFQS: 0.0672 | area with substrate PNLYFQS: 0.0683 | area with substrate QNLYFQS: 0.0973 | area with substrate TNLYFQS: 0.0573 | area with substrate VNLYFQS: 0.0349 | area with substrate WNLYFQS: 0.0525

K221C
area with substrate DNLYFQS: 0.063 | area with substrate FNLYFQS: 0.0891 | area with substrate GNLYFQS: 0.0549 | area with substrate HNLYFQS: 0.0567 | area with substrate KNLYFQS: 0.0644 | area with substrate LNLYFQS: 0.058 | area with substrate MNLYFQS: 0.0718 | area with substrate PNLYFQS: 0.0515 | area with substrate QNLYFQS: 0.0588 | area with substrate RNLYFQS: 0.0592 | area with substrate SNLYFQS: 0.0626 | area with substrate TNLYFQS: 0.0564 | area with substrate WNLYFQS: 0.055 | area with substrate YNLYFQS: 0.0607

M122C
area with substrate DNLYFQS: 0.0638 | area with substrate FNLYFQS: 0.0709 | area with substrate GNLYFQS: 0.0904 | area with substrate HNLYFQS: 0.065 | area with substrate INLYFQS: 0.0691 | area with substrate KNLYFQS: 0.0614 | area with substrate LNLYFQS: 0.0824 | area with substrate MNLYFQS: 0.0547 | area with substrate PNLYFQS: 0.0685 | area with substrate QNLYFQS: 0.0653 | area with substrate RNLYFQS: 0.0754 | area with substrate SNLYFQS: 0.0589 | area with substrate TNLYFQS: 0.0695 | area with substrate VNLYFQS: 0.0847 | area with substrate YNLYFQS: 0.0421

M83Q
area with substrate DNLYFQS: 0.0481 | area with substrate FNLYFQS: 0.0409 | area with substrate HNLYFQS: 0.0524 | area with substrate INLYFQS: 0.0578 | area with substrate KNLYFQS: 0.0482 | area with substrate LNLYFQS: 0.0617 | area with substrate MNLYFQS: 0.0517 | area with substrate PNLYFQS: 0.0454 | area with substrate SNLYFQS: 0.0353 | area with substrate TNLYFQS: 0.0612 | area with substrate WNLYFQS: 0.0615

F92P
area with substrate DNLYFQS: 0.0387 | area with substrate HNLYFQS: 0.0654 | area with substrate KNLYFQS: 0.0613 | area with substrate LNLYFQS: 0.0737 | area with substrate MNLYFQS: 0.0528 | area with substrate NNLYFQS: 0.0514 | area with substrate PNLYFQS: 0.047 | area with substrate RNLYFQS: 0.0528 | area with substrate SNLYFQS: 0.0531 | area with substrate TNLYFQS: 0.0278 | area with substrate VNLYFQS: 0.0541 | area with substrate WNLYFQS: 0.0471 | area with substrate YNLYFQS: 0.0503

N206K
area with substrate DNLYFQS: 0.0819 | area with substrate HNLYFQS: 0.0638 | area with substrate SNLYFQS: 0.0517 | area with substrate WNLYFQS: 0.0435 | area with substrate YNLYFQS: 0.0328

F187W
area with substrate DNLYFQS: 0.0613 | area with substrate FNLYFQS: 0.0576 | area with substrate GNLYFQS: 0.0471 | area with substrate HNLYFQS: 0.0519 | area with substrate INLYFQS: 0.0497 | area with substrate KNLYFQS: 0.0771 | area with substrate LNLYFQS: 0.0109 | area with substrate MNLYFQS: 0.0626 | area with substrate NNLYFQS: 0.0711 | area with substrate PNLYFQS: 0.062 | area with substrate RNLYFQS: 0.061 | area with substrate SNLYFQS: 0.0522 | area with substrate TNLYFQS: 0.0582 | area with substrate WNLYFQS: 0.0619 | area with substrate YNLYFQS: 0.0592

G39P
area with substrate DNLYFQS: 0.0438 | area with substrate FNLYFQS: 0.0399 | area with substrate GNLYFQS: 0.043 | area with substrate HNLYFQS: 0.0463 | area with substrate INLYFQS: 0.0348 | area with substrate LNLYFQS: 0.0497 | area with substrate MNLYFQS: 0.0288 | area with substrate NNLYFQS: 0.0704 | area with substrate PNLYFQS: 0.0354 | area with substrate RNLYFQS: 0.0446 | area with substrate SNLYFQS: 0.0394 | area with substrate TNLYFQS: 0.0408 | area with substrate VNLYFQS: 0.0478 | area with substrate WNLYFQS: 0.027 | area with substrate YNLYFQS: 0.0383

T181R
area with substrate DNLYFQS: 0.0199 | area with substrate INLYFQS: 0.045 | area with substrate KNLYFQS: 0.0656 | area with substrate LNLYFQS: 0.0522 | area with substrate PNLYFQS: 0.0618 | area with substrate TNLYFQS: 0.0629 | area with substrate VNLYFQS: 0.0453 | area with substrate WNLYFQS: 0.0377

P134I
area with substrate DNLYFQS: 0.0616 | area with substrate HNLYFQS: 0.0498 | area with substrate INLYFQS: 0.0432 | area with substrate KNLYFQS: 0.0644 | area with substrate NNLYFQS: 0.0736 | area with substrate PNLYFQS: 0.0567 | area with substrate SNLYFQS: 0.0556 | area with substrate TNLYFQS: 0.0691 | area with substrate VNLYFQS: 0.0765 | area with substrate WNLYFQS: 0.0417

I42E
area with substrate DNLYFQS: 0.0495 | area with substrate FNLYFQS: 0.0268 | area with substrate GNLYFQS: 0.0453 | area with substrate HNLYFQS: 0.0422 | area with substrate INLYFQS: 0.017 | area with substrate KNLYFQS: 0.0416 | area with substrate LNLYFQS: 0.0491 | area with substrate MNLYFQS: 0.0484 | area with substrate NNLYFQS: 0.0354 | area with substrate PNLYFQS: 0.0391 | area with substrate TNLYFQS: 0.0186 | area with substrate VNLYFQS: 0.0385 | area with substrate WNLYFQS: 0.047 | area with substrate YNLYFQS: 0.0364

Q105H
area with substrate DNLYFQS: 0.0861 | area with substrate GNLYFQS: 0.0623 | area with substrate LNLYFQS: 0.0565 | area with substrate MNLYFQS: 0.0749 | area with substrate SNLYFQS: 0.0761 | area with substrate TNLYFQS: 0.046
